“Also recorded” adds a separate entry of the source.
Experiments:
[1] = biological target: T1, recombinant human EphA5 (rhEphA5) antigen (Homo sapiens, UniProt P54756); assay: Biacore multi-cycle kinetic analysis of purified antibodies, 1:1 model; assay type: binding
T1 construct: purchased R and D systems 3036-A5
Experimental: In order to assess the binding of the six lead humanized variants to rhEphA5 antigen, multi-cycle kinetic analysis (FIG. 68) was performed on purified material. Kinetic experiments were performed at 25° C. on a Biacore T200 running Biacore T200 Control software V2.0.1 and Evaluation software V3.0 (GE Healthcare, Uppsala, Sweden).
HBS-P+ (GE Healthcare, Uppsala, Sweden), supplemented with 1% BSA w/v (Sigma, Dorset, UK) was used as running buffer as well as for ligand and analyte dilutions. Purified lead antibodies were diluted to 0.5 μg/mL in running buffer and at the start of each cycle, loaded onto Fc2, Fc3 and Fc4 of an anti-human IgG CM5 sensor chip (GE Healthcare, Little Chalfont, UK). Antibodies were captured at a flow rate of 10 μl/min to give an immobilization level (RL) of ~50 RU. The surface was then allowed to stabilize.
Multi-cycle kinetic data was obtained using recombinant EphA5 as the analytes injected at a flow rate of 30 μl/min to minimize any potential mass transfer effects. A five point, three-fold dilution range from 1.11 nM to 270 nM of EphA5 was prepared in running buffer. For each concentration, the association phases were monitored for 210 seconds and the dissociation phase was measured for 900 seconds. […]
A summary of the kinetic constants determined from the 1:1 model fitted curves is shown in FIG. 19 with fitted curves shown in FIG. 20.

[2] = Thermal ramp stability (UNcle, Sypro Orange fluorescence and static light scattering); assay type: physicochemical
Excerpt: Thermal ramp stability experiments (Tm and Tagg) are well established methods for ranking proteins and formulations for stability. A protein's denaturation profile provides information about its thermal stability and represents a structural ‘fingerprint’ for assessing structural and formulation buffer modifications. A widely used measure of the thermal structural stability of a protein is the temperature at which it unfolds from the native state to a denatured state. For many proteins, this unfolding process occurs over a narrow temperature range and the mid-point of this transition is termed ‘melting temperature’ or ‘Tm’. To determine the melting temperature of a protein, UNcle measures the fluorescence of Sypro Orange (which binds to exposed hydrophobic regions of proteins) as the protein undergoes conformational changes.
Samples for each variant were formulated in PBS and Sypro Orange at a final concentration of 1 mg/mL. 9 μL of each sample mixture was loaded in duplicate into UNi microcuvettes. Samples were subjected to a thermal ramp from 25-95° C., with a ramp rate of 0.3° C./minute and excitation at 473 nm. Full emission spectra were collected from 250-720 nm, and the area under the curve between 510-680 nm was used to calculate the inflection points of the transition curves (Tonset and Tm). Monitoring of static light scattering (SLS) at 473 nm allowed the detection of protein aggregation, and Tagg (onset of aggregation) was calculated from the resulting SLS profiles. Thermal stability values determined lie in a broad range from 57.9 to 69.6° C. (Tm1), 55.1 to 65.2° C. (Tonset) and 65.6 to 70.2° C. (Tagg) with the humanized leads generally showing improved profiles when compared to the chimeric antibody. […] All humanized antibodies appear to have a higher Tm1, Tonset and Tagg compared to the chimeric antibody.

[3] = test system: Membrane Proteome Array, 6,000 human membrane protein clones; assay: Membrane Proteome Array (MPA) specificity screen; assay type: binding; conditions: antibody at 20 μg/ml, HEK-293T; listed as EPHA5 H5K3
Experimental: Membrane Proteome Array: Membrane Proteome Array (MPA) screening was conducted at Integral Molecular. The MPA is a protein library composed of 6,000 human membrane protein clones, each overexpressed in live cells from expression plasmids. Each clone was individually transfected in separate wells of a 384-well plate followed by a 36 h incubation (Tucker et al., 2018). Cells expressing each individual MPA protein clone were arrayed in duplicate in a matrix format for high-throughput screening. Before screening on the MPA, the test antibody concentration for screening was determined on cells expressing positive (membrane-tethered Protein A) and negative (mock-transfected) binding controls, followed by detection by flow cytometry using a fluorescently-labeled secondary antibody. Each test antibody was added to the MPA at the predetermined concentration, and binding across the protein library was measured on an Intellicyt iQue using a fluorescently-labeled secondary antibody. Each array plate contains both positive (Fc-binding) and negative (empty vector) controls to ensure plate-to-plate reproducibility. […]
To identify antibody binding targets, ~6,000 different membrane proteins were each expressed in individual wells of HEK-293T or QT6 cells arrayed in 384 well plates. […] Non-specific fluorescence was determined to be any value below 3 standard deviations of the mean background value.

[4] = test system: EphA5+ cells (H460 human lung cancer cells); assay: Antibody internalization after binding to cell-surface EPHA5, EphA5+ cells; assay type: cell-based; conditions: various antibody concentrations
EphA5- cells = assay: Antibody internalization, EphA5- cells; assay type: cell-based
[5] = test system: H460, A549 and H1299 human lung carcinoma cells; assay: Incucyte Fabfluor-pH Red antibody internalization, real-time live cell imaging; assay type: cell-based; conditions: pH-sensitive Fabfluor dye, various concentrations
Experimental: In vitro studies were conducted in which three different Eph5A-expressing target cell lines were incubated with various concentrations of VH5Vk3 or VH4Vk3 antibodies after which internalization of bound antibody was calculated. Antibody internalization was performed with the Incucyte® Human Fabfluor-pH Red Antibody Labeling Dye and the naked VH4Vk3 (FIG. 66) and VH5Vk3 (FIG. 67) human monoclonal antibodies in the following cell lines: H460 human lung carcinoma, A549 human lung carcinoma and H1299 human lung carcinoma. These cell lines express variable levels of EphA5 on the cell surface: H460 (+++)>A549 (++)=H1299 (++). Internalization was visualized and quantified using real-time live cell imaging analysis. The Fabfluor-pH Red Antibody Labeling Dye is sensitive to pH and only emits fluorescence once inside lysosomes in low pH conditions.

T1 sequence (P54756 25-573 limits assumed): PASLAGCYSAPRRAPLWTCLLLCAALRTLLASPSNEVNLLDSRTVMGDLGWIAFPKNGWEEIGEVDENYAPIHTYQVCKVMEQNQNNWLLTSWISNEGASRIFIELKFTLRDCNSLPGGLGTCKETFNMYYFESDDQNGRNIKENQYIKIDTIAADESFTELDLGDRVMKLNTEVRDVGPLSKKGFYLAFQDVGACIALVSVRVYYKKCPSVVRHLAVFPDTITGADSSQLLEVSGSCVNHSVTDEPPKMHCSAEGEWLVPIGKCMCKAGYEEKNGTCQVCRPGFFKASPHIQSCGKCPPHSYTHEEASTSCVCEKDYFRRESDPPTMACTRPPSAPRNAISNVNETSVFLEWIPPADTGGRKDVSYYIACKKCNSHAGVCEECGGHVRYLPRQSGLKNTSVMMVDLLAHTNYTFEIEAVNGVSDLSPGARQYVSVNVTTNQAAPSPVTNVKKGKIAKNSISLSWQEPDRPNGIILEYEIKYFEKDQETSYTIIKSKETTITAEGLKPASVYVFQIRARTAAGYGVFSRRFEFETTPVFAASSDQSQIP

B1: VH5/VK3: humanized anti-EphA5 IgG1/kappa antibody; VH SEQ ID NO:6, VL SEQ ID NO:11; heavy chain SEQ ID NO:39, light chain SEQ ID NO:40 (antibody)
heavy: EVQLVESGGGLVQPGGSLKLSCAASGFTFSTFGIHWVRQAPGKGLEWVAYISGASTTIYYADSVKGRFTISRDNSKNTLYLQMNSLRAEDTAVYYCARYGTSFPYGLDYWGQGTLVTVSSASTKGPSVFPLAPSSKSTSGGTAALGCLVKDYFPEPVTVSWNSGALTSGVHTFPAVLQSSGLYSLSSVVTVPSSSLGTQTYICNVNHKPSNTKVDKRV[letters of human IgG1 Fc left out]
light: DIVMTQSPDSLAVSLGERATINCKASQSVDYDGDSYMNWYQQKPGKAPKLLIYGASNLESGIPDRFSGSGSGTDFTLTISRLEPEDAAVYYCQQSNEDPFTFGQGTKLEIKRTVAAPSVFIFPPSDEQLKSGTASVVCLLNNFYPREAKVQWKVDNALQSGNSQESVTEQDSKDSTYSLSSTLTLSKADYEKHKVYACEVTHQGLSSPVTKSFNRGEC
Question: What does the source list for B1?
Answer: kd ([1]; Biacore T200, 25° C., IgG captured on anti-human IgG chip): 0.00135 s⁻¹; RMAX ([1]; fitted 1:1 model): 35.3; ranking by Tagg (SLS profiles) ([2]; among the chimeric and six lead humanized variants): highest Tagg values; Average Tonset (° C.) ([2]; average of duplicates): 63.6 °C; Average Tm1 (° C.) ([2]; average of duplicates, 1 mg/mL in PBS): 69.0 °C; Average Tagg 473 (° C.) ([2]; average of duplicates, SLS at 473 nm): 70.2 °C; Tonset (° C.) ([2]; single replicate): 63.59 °C; Tm1 (° C.) ([2]; single replicate, 1 mg/mL in PBS, ramp 25-95° C.): 68.99 °C; Tagg 473 (° C.) ([2]; single replicate, SLS at 473 nm): 70.17 °C; Identified membrane protein targets: Target gene (HGNC) [3]: EPHA5; also recorded: CPT1B; internalization into EphA5+ cells [4]: dose dependent; also recorded: internalized into EphA5+ cells; internalization into EphA5- cells (EphA5- cells): but not EphA5-cells; internalization and lysosomal trafficking of the naked antibody [5]: receptor-mediated internalization and trafficking

Reference: patent US20260216365A1, “ANTIBODY-DRUG CONJUGATES AGAINST THE RECEPTOR TYROSINE KINASE EPHA5” (Rutgers, The State University of New Jersey, priority 2021, published 2026)
